# Experimental data taken from PubChem BioAssay AID651568 (National Center for Advancing Translational Sciences (NCATS), 2012).
# Screen size: about 1,200 compounds; about 55 (5%) were called active. This list was built around the results that the source calls inconclusive (neither active nor inactive); the mix of calls is not that of the screen. Calls follow the shape of the dose curve; as a rule, active = well fitted inhibition curve with a large enough effect; inconclusive = small, poorly fitted or top-dose-only effect; inactive = no such curve, though single readings can be large or run the other way. Potencies of inconclusive entries are left out as doubtful fits.
# Test: qHTS Assay to Find Inhibitors of Chronic Active B-Cell Receptor Signaling: Hit Validation in Renilla Reporter Assay; also: nearly all actives have a fitted effect of over 70% in size
# Conditions: TMD8 IkB-Renilla luciferase reporter, NF-kB signaling; series mostly up to 57.5 µM; activity change, negative = inhibition: at the top concentration
# Text: Diffuse large B-cell lymphoma (DLBCL) is the most common category of non-Hodgkin lymphoma, with ~20,000 new cases per year in the United States. DLBCL should be regarded as a collection of different neoplasms. Microarray gene expression analysis has defined two principal types of DLBCL, named for their similarity to normal B cell stages or activation states: a germinal center B-cell (GCB) type, and an activated B-cell (ABC) type. In ABC-DLBCL, a constitutive high-level activity of the NF-kappaB family of transcription factors has been observed (1) and NF-kappaB target genes are more highly expressed in ABC primary tumors than in GCB tumors. Functional studies have shown a constitutive high-level activity of the IkappaB (inhibitor of kappa-B) kinase (IKK) complex. […] Further analysis of DLBCL primary tumors for NF-kappaB target gene expression imply that although CARD11 is required for constitutive IKK activity in all ABC-DLBCL lines, mutations in CARD11 may be the root cause of IKK activation only in lines or tumors with such mutations. In other words, CARD11 mutations may explain NF-kappaB activation in only 10% of ABC-DLBCL cases. […] This process has been termed 'chronic active BCR signaling' (CABS). The goal of this screen is to find small-molecule inhibitors of the CABS pathway found in ABC-DLBCL lines using a cell-based assay that measures IkappaBalpa stability, which has already been extensively validated in the OCI-Ly3 line (PubChem AID:445; REF: 4). […] Hits from the primary screen were tested in this orthogonal secondary assay. NIH Molecular Libraries Probe Production Network [MLPCN] NIH Chemical Genomics Center [NCGC] MLPCN Grant: R03 DA031086 PI Name: Dr. R. Eric Davis
# The IkB-Photinus/Renilla reporter assay differs from the primary assay in that the reporters are constitutively expressed, and based on luciferases that are different from the click beetle luciferases and each other. These differences should help to eliminate artifactual sources of activity specific to the primary assay. This assay uses the Dual-Glo substrate from Promega; extensively validated in a 96-well format, it could be converted to a smaller-well format. All lines needed for the IkB-Photinus/Renilla assay have already been prepared and extensively validated
# % is scaled to controls: 0 for no effect and ±100 for the full control effect; potency is read from the fitted curve at half-maximal effect; tags tell the direction and shape of the fitted curve.
Compound,Potency,"activity change, negative = inhibition"
O=[N+]([O-])c1ccc(Sc2nc3ccccc3o2)c([N+](=O)[O-])c1,active: 3.01 µM,–
Cc1cccc(NS(=O)(=O)c2ccc(-c3cnc(C4CC4)o3)cc2)c1C,"inconclusive [inhibitor, single point]",–
C#C[C@]1(O)CC[C@H]2[C@@H]3CCc4cc(O)ccc4[C@H]3CC[C@@]21C,–,inactive: -9.49%
Clc1ccc2nc(-c3ccccc3)nc(C(Cl)Cl)c2c1,"inconclusive [inhibitor, full curve]",–
COc1ccc(/C=C2\CCc3ccccc3C2=O)cc1O,active: 26.9 µM,–
NC(=S)N/N=C1\CC(c2ccc3c(c2)OCCCO3)Oc2ccc(F)cc21 (centres undefined),"inconclusive [inhibitor, single point]",–
O=[N+]([O-])/C=C/c1cc2ccccc2[nH]1,"inconclusive [inhibitor, single point]",–
Cc1nc(N2N=C(c3ccc(Cl)cc3)CC2c2ccco2)sc1C(=O)N(C)C (centres undefined),–,inactive: 2.02%
COc1ccc(/C=C/C(=O)c2ccc(C(=O)/C=C/c3ccc(OC)c(OC)c3)cc2)cc1OC,"inconclusive [inhibitor, single point]",–
Oc1[nH]c2c(Cl)cc(Cl)cc2c1N=NC(=S)NCC1CCCO1 (centres undefined),"inconclusive [inhibitor, full curve]",–
COc1ccc(C(=O)/C=C/c2ccc(OC)c(Cn3nnc4ccccc43)c2)cc1,active: 9.53 µM,–
CC(C)N=C(NS(=O)(=O)c1ccccc1)C(Cl)(Cl)Cl,active: 26.9 µM,–
Cc1ccc(C)c(/C=C/C(=O)c2ccccc(=O)c2O)c1,"inconclusive [inhibitor, single point]",–
Cn1nnnc1N=N/C(=N/Nc1ccccc1)c1ccccc1,"inconclusive [inhibitor, single point]",–
Fc1cccc2sc(Nc3nnc(-c4ccccc4)o3)nc12,"inconclusive [inhibitor, single point]",–
CNC(=S)N/N=C1\C(=O)c2cccc3cccc1c23,"inconclusive [inhibitor, single point]",–
CCN(CC)c1ccc(-c2nn3c(-c4n[nH]c5c4CCC5)nnc3s2)cc1,"inconclusive [inhibitor, single point]",–
OC(CNCc1ccc(-c2ccccc2)cc1)c1ccccc1 (centres undefined),–,inactive: -0.413%
N#CC1=C(N)OC2=C(CCc3ccccc32)C1c1ccccc1 (centres undefined),"inconclusive [inhibitor, partial curve]",–
CC1=NN(C(N)=S)C(=O)C1N=Nc1cccc([N+](=O)[O-])c1 (centres undefined),–,inactive: -13.6%
CCn1c2ccccc2c2cc(NC(=O)c3ccccc3-c3ccccc3C(=O)O)ccc21,"inconclusive [inhibitor, single point]",–
COc1cc2sc(-c3ccc(S(C)(=O)=O)cc3)c(C#CCO)c2cc1OC,–,inactive: -5.66%
Oc1[nH]c2ccc(Br)cc2c1N=NC(=S)N1CCOCC1,"inconclusive [inhibitor, full curve, poor fit]",–

Compound,Potency,"activity change, negative = inhibition"
COc1ccc(C(=O)NN(C)c2nc(C(F)(F)F)nc3ccccc23)cc1,–,inactive: -4.63%
C(=N\Nc1nc2ccccc2s1)/c1ccccn1,"inconclusive [inhibitor, partial curve]",–
COc1ccc(CNc2nc(NCc3ccc(OC)cc3)c3ncn(C4CCCC4)c3n2)cc1,–,inactive: -20.9%
Cc1ccc(C(=O)c2cc([N+](=O)[O-])ccc2N2CCCCC2)cc1C,–,inactive: 1.06%
O=C(Oc1c(CN2CCOCC2)cc(Cl)c2cccnc12)c1ccc(F)cc1,–,inactive: -18.7%
CC[C@]12c3[nH]c4cc(CCC(=O)N(C)C)ccc4c3CCN1C(=O)[C@@H](CC(=O)NCCCN(C)C)C[C@@H]2C(=O)N1CCN(C(=O)c2ccco2)CC1,–,inactive: -12.6%
CCc1cc2c(=O)[nH]c(-c3ccccn3)nc2s1,"inconclusive [inhibitor, partial curve]",–
COc1cccc(N2CCN(C(=O)c3ccc(CS(=O)c4ccccc4Cl)o3)CC2)c1 (centres undefined),"inconclusive [inhibitor, single point]",–
CC(/C=N/NC(=O)c1n[nH]c2c1CCC2)=C\c1ccccc1,"inconclusive [inhibitor, single point]",–
O=C(/C=C/c1ccc(O)cc1)c1ccc(O)cc1O,active: 10.7 µM,–
Cc1ccc(S(=O)(=O)n2ccc(OC(=O)c3cccs3)n2)cc1,"inconclusive [inhibitor, partial curve]",–
O=C(O)CCCN1C(=O)/C(=C\c2ccccc2OCc2ccccc2)SC1=S,"inconclusive [inhibitor, partial curve]",–
COc1ccc(/C=C/C(=O)c2cc(Br)ccc2OC(=O)c2ccco2)cc1OC,"inconclusive [inhibitor, single point]",–
Cc1cccc(C)c1NS(=O)(=O)c1ccc(-c2cnc(C3CC3)o2)cc1,"inconclusive [inhibitor, single point]",–
c1ccc(-c2cc(-c3nnc4n3N=C(c3ccc5ccccc5c3)CS4)[nH]n2)cc1,"inconclusive [inhibitor, single point]",–
O=Cc1ccccc1OCCOc1ccccc1C=O,active: 12 µM,–
CCOC(=O)CSC1=C(C#N)C(c2ccc(C)o2)CC(=O)N1 (centres undefined),–,inactive: -23.1%
O=C(/C=C\c1ccccc1)Oc1cccc2cccnc12,"inconclusive [inhibitor, single point]",–
Cc1nn(-c2ccccc2)c(C)c1/C=N/NC(=O)c1cc(-c2cccs2)[nH]n1,"inconclusive [inhibitor, single point]",–
O=C(COc1ccccc1-c1ccccc1)N/N=C/c1cccc2ccccc12,–,inactive: -0.961%
O=C(N/N=C/c1ccc(Cl)cc1)c1n[nH]c2c1CCCC2,–,inactive: -7.41%
C=C1C(O)[C@@H]2O[C@]3(CC[C@H](/C=C/C(C)[C@@H]4CC(C)=CC5(O[C@H](C[C@@](C)(O)CO)CCC5O)O4)O3)CC[C@H]2O[C@@H]1C(O)CC(C)[C@H]1OC2(CCCCO2)CCC1C (some centres undefined),"inconclusive [inhibitor, partial curve]",–
COc1ccc(S(=O)(=O)NCc2ccccn2)cc1NC(=O)c1ccccc1C,"inconclusive [inhibitor, single point]",–

Compound,Potency,"activity change, negative = inhibition"
Cc1ccccc1C(=O)Oc1ccc2ccc(O)cc2c1,–,inactive: 1.03%
COc1ccc(C(=O)/C=C/c2ccc(O)cc2)c2c1CC(O)C(C)(C)O2 (centres undefined),active: 23.9 µM,–
Cn1c(O)c(N=NC(=S)Nc2ccccc2F)c2cc(S(=O)(=O)N3CCOCC3)ccc21,"inconclusive [inhibitor, full curve]",–
COc1ccc(CCNCC(O)COc2cccc(Br)c2)cc1 (centres undefined),"inconclusive [inhibitor, single point]",–
CCCOc1ccccc1C1CC(=O)Nc2cc3c(cc21)OCCO3 (centres undefined),"inconclusive [inhibitor, single point]",–
CCOC(=O)c1c(C)n(C)c2ccc(OC)c(NC(=O)CN3CCN(C(=O)c4ccco4)CC3)c12,–,inactive: 0.121%
O=C1N/C(=C/c2ccc(N3CCOCC3)o2)C(=O)N1c1ccccc1,"inconclusive [inhibitor, single point]",–
COc1ccc2c(c1)c(/C=N/Nc1nc3ccccc3[nH]1)c(C)n2C,"inconclusive [inhibitor, single point]",–
Cc1cccc(Cn2cc(/C=C/[N+](=O)[O-])c3ccccc32)c1,"inconclusive [inhibitor, single point]",–
Oc1ccc(-c2nnc(Nc3cccc(O)c3)c3ccccc23)cc1,"inconclusive [inhibitor, single point]",–
CN1CCN(C(c2ccccn2)c2cc(Cl)c3cccnc3c2O)CC1 (centres undefined),"inconclusive [inhibitor, partial curve]",–
CCOC(=O)C1=C(C)NC(C)=C(C(=O)OCC)C1/C=C/c1ccccc1,–,inactive: 12.9%
COc1cc(-c2noc(C)c2-c2ccc3[nH]ccc3c2)cc(OC)c1OC,"inconclusive [inhibitor, single point]",–
CCCCC1C(=O)CC[C@H]2[C@@H]1CC(=O)[C@@H]2C/C=C\CCCC(=O)O (some centres undefined),"inconclusive [inhibitor, partial curve]",–
COCCn1nnnc1C(C(C)C)N(Cc1ccccc1)Cc1cc2cc(OC)ccc2[nH]c1=O (centres undefined),"inconclusive [inhibitor, single point]",–
COc1ccc(N=N/C(=C\O)C(=O)c2ccco2)cc1,"inconclusive [inhibitor, single point]",–
Cc1cccc(N(C)S(=O)(=O)c2ccc(-c3cnc(C4CC4)o3)cc2)c1,"inconclusive [inhibitor, partial curve, poor fit]",–
Oc1[nH]c2ccccc2c1N=NC(=S)N1CCOCC1,"inconclusive [inhibitor, full curve, poor fit]",–
C/C(=N\NC(N)=S)c1cc(-c2ccccc2)c(-c2ccccc2)s1,"inconclusive [inhibitor, single point]",–
COc1ccc(CNC(=O)/C(C#N)=C/c2cccc(OC)c2OC)cc1,"inconclusive [inhibitor, single point]",–
CCOC(=O)C(C)Oc1cccc2c(=O)n(CC(=O)NCc3ccccc3)ccc12 (centres undefined),–,inactive: -22.1%
N#CCSc1nc(N)c(C#N)c(C2CCCCC2)c1C#N,"inconclusive [inhibitor, single point]",–
O=C(Oc1c(CN2CCOCC2)cc(Cl)c2cccnc12)c1ccccc1Cl,"inconclusive [inhibitor, partial curve]",–
